Experimental data reported in ChEMBL document CHEMBL4888484, “Replenishing the malaria drug discovery pipeline: Screening and hit evaluation of the MMV Hit Generation Library 1 (HGL1) against asexual blood stage Plasmodium falciparum ,using a nano luciferase reporter read-out” (2022).
The whole screen tested about 150,000 compounds, of which about 540 (0.36%) showed an effect of 50% or more. The list shows a part of the results.

tested on: Plasmodium falciparum; assay: Primary screen in NF54 nanoGlo assay, in single point, at 2uM, 72h; a lower Z score goes with more inhibition; assay type: functional, Erythrocyte; conditions: timepoint 72 hour

Row | SMILES | % Inhibition [%] | Z score
1 | Cc1ccc(S(=O)(=O)NC(=O)c2scnc2C2CC2)s1 | -16 | 1.4
2 | Cc1ccc(C(=O)N2CCC3(CC2)N[C@H](C(=O)NCC(C)C)Cc2[nH]cnc23)cn1 | -6 | 1.04
3 | Cc1csc([C@H](C)NC(=O)c2ccn(C)c2C)n1 | -14 | 1.42
4 | CC(C)(NC(=O)COC[C@H]1CCCCO1)c1nnc(N)s1 | -10 | 1.92
5 | Cc1ccc([C@]2(C)NC(=O)N(CC(=O)NC(=O)NCC(F)(F)F)C2=O)o1 | 2 | -0.38
6 | Cc1ncccc1CCNC(=O)N[C@H]1C[C@H](c2ccccc2F)C1 | -13 | 1.7
7 | O=C(NC[C@H]1CCCO1)N1CCc2[nH]c(-c3ccccc3)nc2C1 | -17 | 2.48
8 | O=C(NCc1ccc(OCC2CC2)nc1)[C@@H]1CCCN1C(=O)c1ccccc1O | -12 | 1.63
9 | COC1CCC(C)(CNC(=O)N2CCN(c3nncn3C)CC2)CC1 (stereo unspecified) | 0 | -0.03
10 | C[C@@H](CC#N)N(C)c1cnc(C#N)cn1 | 1 | -0.15
11 | CCc1cc(CNC(=O)NC2CCOC2c2ccccc2)on1 (stereo unspecified) | -6 | 1.05
12 | COc1cccc([C@@]2(CC(=O)N3CCN(C(=O)c4ccco4)CC3)CC(=O)N(C3CCCC3)C2=O)c1 | 8 | -1.52
13 | Cc1nc2ccccc2n1CCc1noc(-c2ccco2)n1 | -7 | 1.01
14 | Cc1ccc(N2CCOC2=O)c(-c2ccccc2CN2CCOCC2)c1 | -13 | 1.99
15 | Cc1noc(C)c1CNc1ccccc1-n1cncn1 | -6 | 0.57
16 | Cc1cc(OC2CCN(C(=O)CCn3cnc4ccccc4c3=O)CC2)cc(=O)n1C | -11 | 1.84
17 | CC[C@@H](c1nc(C)c(C)s1)n1cc(-c2ncc[nH]2)nn1 | -16 | 1.73
18 | N#Cc1ccc(F)c(CS(=O)(=O)NC2CC3CC2C2CCCC32)c1 (stereo unspecified) | -12 | 2.07
19 | N#Cc1cc(-c2ccccc2)sc1NC(=O)COC[C@H]1CCCO1 | -1 | 0.21
20 | O=C1[C@H]2CCCC2=Nc2ccccc2N1Cc1ccc(F)cc1 | -9 | 0.97
21 | CCN(C)S(=O)(=O)N(C)[C@@H](C)Cc1ccc(OC)cc1 | -14 | 2.6
22 | CN(CCCCO)C(=O)C1(N(C)C(=O)OC(C)(C)C)CCC1 | 21 | -2.64
23 | Cc1cccc(-c2noc(C3(c4cccnc4)CC3)n2)n1 | 22 | -2.79
24 | c1nc(N2CCOCC2)cc(N2C[C@@H]3[C@@H]4CC[C@@H](C4)[C@@H]3C2)n1 | 4 | -0.62
25 | Cn1cc(Cl)cc1C(=O)N1CCC2(CC1)[C@H](O)C[C@@H]2O | -13 | 1.67
26 | Cn1ccc(B2OC(C)(C)C(C)(C)O2)n1 | -10 | 1.09
27 | CCS(=O)(=O)Oc1cc(CN(CC(C)C)C(=O)NC(C)(C)C)ccc1OC | -16 | 1.56

Row | SMILES | % Inhibition [%] | Z score
28 | Cc1ccc(C(=O)N2CCC(c3ocnc3C(=O)O)CC2)c(O)c1 | 17 | -2.12
29 | CCOC(=O)[C@H]1CCCN(C(=O)c2cnc(-c3cccc(C)c3)nc2N2CCN(c3ccccc3F)CC2)C1 | -20 | 2.12
30 | CC1CC(Nc2ccnn2CC2CCOC2)CN1C1CC1 (stereo unspecified) | 7 | -0.59
31 | Cc1cccc(N(C)S(=O)(=O)c2c(C)n[nH]c2C)n1 | -7 | 0.89
32 | COC1CC2C(=O)N(C3CCN(Cc4ccccc4)CC3)C(=O)N2C1 (stereo unspecified) | -8 | 0.98
33 | Cc1ccc2c(=O)c(-c3nc(-c4ccc(Cl)cc4)no3)cn(Cc3cccc(F)c3)c2n1 | 8 | -0.73
34 | C[C@@H](C(=O)NCc1ccccc1)N(C)Cc1cscn1 | -10 | 1.61
35 | OCC1CCN(c2ncc3c(n2)CCC[C@@H]3NC2CCCCCCC2)CC1 | -3 | 0.4
36 | O=C(Nc1cccnc1)c1cccc(S(=O)(=O)NC[C@H]2CCCCO2)c1 | -3 | 0.41
37 | Cc1cc(Br)ccc1CN[C@H]1COC[C@H]1n1ccnn1 | -5 | 0.76
38 | COc1ccc(CC(=O)N[C@H]2CCN(c3nccs3)C2)cc1OC | 4 | -0.73
39 | CCc1nnc(CNC2CCCCC2Oc2cccc(C)c2)o1 (stereo unspecified) | -5 | 0.72
40 | COc1cccc(C(=O)N2Cc3cc(NC(C)=O)ccc3C[C@H]2C(=O)N2CCCC2)c1 | -9 | 1.46
41 | O=C(Cc1c(F)cccc1Cl)N1CC[C@H](c2ccc3c(c2)OCO3)C1 | 8 | -1.08
42 | C[C@H]1c2ccccc2CN1S(=O)(=O)c1cccc(C(=O)NC2CC2)c1 | -13 | 1.91
43 | Cc1csc(C(=O)N[C@H]2CCN(c3ccc4nncn4n3)C2)c1 | -14 | 2.25
44 | CC(=O)N1CCC(C(=O)N2CCCCCCC2)CC1 | -1 | 0.11
45 | Cc1ccc(N(C)C)cc1NC(=O)N1CCCN([C@H]2COC[C@@H]2O)CC1 | -2 | 0.38
46 | O=C(NCc1csc2c1CCCC2)c1cn(CCN2CCNCC2)nn1 | -3 | 0.37
47 | c1cc(-c2cnccn2)cc(-c2ccn(Cc3nnc(C4CC4)o3)n2)c1 | 10 | -1.25
48 | Oc1ccc2c(c1)Oc1ncn3nc(-c4ccc(Cl)cc4Cl)nc3c1[C@H]2c1ccccc1 | -2 | 0.26
49 | COc1ccccc1N1CCN(C(=O)c2cccc(N(C)C)c2)CC1 | -6 | 1.05
50 | Cc1cccc(N2CCN(C(=O)c3c(-c4cncnc4)cc(=O)n4c3CCC4)CC2)c1C | -3 | 0.39
51 | Clc1cnc(N2CCCC2C2CCCO2)nc1N1CCCC1C1CCCO1 (stereo unspecified) | -3 | 0.51
52 | Cc1nccnc1[C@H](C)NCc1ccc(C2CC2)cc1F | -1 | 0.15
53 | CN(C)CCn1ccc(NC(=O)N2CCN(c3nccc4sccc34)CC2)n1 | -30 | 3.55
